From the supplement of paper PMC12217912
This is one part of the list. Sequences were assembled here from the parent chain. Values near 0.05 are background.

B1: TEV protease; numbered along this chain (parent)
chain: MGESLFKGPRDYNPISSSICHLTNESDGHTTSLYGIGFGPFIITNKHLFRRNNGTLVVQSLHGVFKVKDTTTLQQHLVDGRDMIIIRMPKDFPPFPQKLKFREPQREERICLVTTNFQTKSMSSMVSDTSCTFPSGDGIFWKHWIQTKDGQCGSPLVSTRDGFIVGIHSASNFTNTNNYFTSVPKNFMELLTNQEAQQWVSGWRLNADSVLWGGHKVFMVKPEEPFQPVKEATQL

Variants of: B1
Test: raw area under fraction-flipped curve 0-4 h after induction (AUC4h, not background-subtracted), DNA-recorder readout of cleavage of the substrate (dimensionless); higher = more cleavage of the substrate by the protease variant
Settings: temperature: 34 °C; time window: 0-4 h after rhamnose induction
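Note: Bxb1 expression induced with 0.2% (w/v) L-rhamnose at OD600 near 0.5, cultures sampled hourly, flipped fraction per protease–substrate barcode pair counted by paired-end Illumina sequencing.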

Variant | area with substrate ENLYFQC | area with substrate ENLYFQD | area with substrate ENLYFQI | area with substrate ENLYFQN | area with substrate ENLYFQR | area with substrate ENLYFQS | area with substrate ENLYFQT | area with substrate ENLYFQV | area with substrate ENLYFQW | area with substrate ENLYFQY | area with substrate ENLYFQF | area with substrate ENLYFQG | area with substrate ENLYFQH | area with substrate ENLYFQK | area with substrate ENLYFQL | area with substrate ENLYFQM | area with substrate ENLYFQP | area with substrate ENLYFQQ | area with substrate ENLYFQE
MGESLFKGPRDYNPISSSICHLTNESDGHTTSLYGIGFGPFIITNKHLFRRNNGTLVVQSLHGVFRVKDTTTLQQHLVDGRDMIIIRMPKDFPPFPQKLKFREPQREERICLVTTNFQTKSMSSMVSDTSCTFPSGDGIFWKHWIQTKDGQCGSPLVSTRDGFIVGIHSASNFTNTNNYFTSVPKNFMELLTNQEAQQWVSGWRLNADSVLWGGHKVFMVKPEEPFQPVKEATQL [K66R] | 0.127 | 0.0779 | 0.0298 | 0.0659 | 0.0713 | 0.114 | 0.0574 | 0.0788 | 0.0676 | 0.0953 | – | – | – | – | – | – | – | – | –
MGESLFKGPRDYNPISSSICHLTNESDGHTTSLYGIGFGPFIITNKHLFRRNNGTLVVQSLHGVFKVKDTTTLQQHLVDGRDMIIIRMPKDFPPFPQKLKFREPQREERICLVTTNFQTKSMTSMVSDTSCTFPSGDGIFWKHWIQTKDGQCGSPLVSTRDGFIVGIHSASNFTNTNNYFTSVPKNFMELLTNQEAQQWVSGWRLNADSVLWGGHKVFMVKPEEPFQPVKEATQL [S123T] | 0.13 | – | 0.048 | 0.0816 | 0.0552 | 0.106 | 0.0677 | – | 0.0676 | 0.0666 | 0.0655 | 0.0817 | 0.0814 | 0.0672 | 0.0565 | 0.1 | 0.0593 | 0.067 | –
MGESLFKGPRDYNPISSSICHLTNESDGHTTSLYGIGFGPFIITNKHLFRRNNGTLVVQSLHGVFKVKDTTTLQQHLVDGRDMIIIRMPKDFPPFPQKLKFREPQREEPICLVTTNFQTKSMSSMVSDTSCTFPSGDGIFWKHWIQTKDGQCGSPLVSTRDGFIVGIHSASNFTNTNNYFTSVPKNFMELLTNQEAQQWVSGWRLNADSVLWGGHKVFMVKPEEPFQPVKEATQL [R109P] | 0.0885 | – | – | 0.076 | 0.0529 | 0.0959 | 0.0759 | 0.0592 | – | 0.0789 | 0.0949 | – | 0.0956 | 0.0628 | 0.0554 | 0.072 | 0.0671 | – | –
MGESLFKGPRDYNPISSSICHLTNESDGHTTSLYGIGFGPFIITNKHLFRRNNGTLVVQSLHGVFKVKDTTTLQQHLVDGRDMIIIRMPKDFPPFPQKLKFREPKREERICLVTTNFQTKSMSSMVSDTSCTFPSGDGIFWKHWIQTKDGQCGSPLVSTRDGFIVGIHSASNFTNTNNYFTSVPKNFMELLTNQEAQQWVSGWRLNADSVLWGGHKVFMVKPEEPFQPVKEATQL [Q105K] | 0.098 | 0.0942 | 0.0638 | 0.0784 | 0.0527 | 0.111 | 0.0562 | 0.0742 | 0.0723 | 0.0747 | 0.095 | 0.115 | – | 0.0683 | 0.0634 | 0.0824 | 0.0629 | 0.0763 | 0.0781
MGESLFKGPRDYNPISSSICHLTNESDGHTTSLYGIGFGPFIITNKHLFRRNNGTLVVQSLHGVFKVKDTTTLQQHLVDGRDMIIIRMPKDFPPFPQKLKFREPQREERICLVTTNFQTKSMSSMVSDTSCTFPSGDGIFWKHWIQTKDGQCGSPLVSTRDGFIVGIHSASNFTNTNNYFTSVPKNFMELLTNQEAQQWVSGWRLNADSVLWGGHKVFMVKPETPFQPVKEATQL [E224T] | 0.109 | 0.0886 | 0.0781 | – | 0.0512 | 0.0958 | – | 0.0647 | 0.0562 | 0.0546 | 0.0801 | 0.102 | 0.0859 | – | 0.0577 | – | – | – | –
MGESLFKGPRDYNPISSSICHLTNESDGHTTSLYGIGFGPFIITNKHLFRRNNGTLVVQSLHGVFKVKDTTTLQQHLVDGRDMIIIRMPKDFPPFPQKLKFREPQREERICLVTTNFQTKSMSSMVSDTSCTFPSGDGIFWKHWINTKDGQCGSPLVSTRDGFIVGIHSASNFTNTNNYFTSVPKNFMELLTNQEAQQWVSGWRLNADSVLWGGHKVFMVKPEEPFQPVKEATQL [Q146N] | 0.116 | 0.0813 | – | – | – | 0.113 | 0.0503 | 0.0536 | 0.0618 | – | 0.0764 | 0.118 | – | 0.066 | – | – | – | 0.09 | –
MGESLFKGPRDYNPISSSICHLTNESDGHTTSLYGIGFGPFIITNKHLFRRNNGTLVVQSLHGVFKVKDTTTLQQHLVDGRDMIIIRMPKDFPPFPQKLKFREPQREERICLVTTNFQTKSMSSMVSDTSCTFPSPDGIFWKHWIQTKDGQCGSPLVSTRDGFIVGIHSASNFTNTNNYFTSVPKNFMELLTNQEAQQWVSGWRLNADSVLWGGHKVFMVKPEEPFQPVKEATQL [G136P] | 0.0605 | – | – | – | 0.0587 | 0.0817 | 0.0673 | – | 0.0486 | – | – | 0.0832 | 0.0661 | – | 0.0647 | 0.0687 | 0.075 | – | –
MGESLFKGPRDYNPISSSICHLTNESDGHTTSLYGIGFGPFIITNKHLFRRNNGTLVVQSLHGVFKVKDTTTLQQHLVDGRDMIIIRMPKDFPPFPQKLKFREPQREERICLVTTNFQTKSMSSMVSDTSCFFPSGDGIFWKHWIQTKDGQCGSPLVSTRDGFIVGIHSASNFTNTNNYFTSVPKNFMELLTNQEAQQWVSGWRLNADSVLWGGHKVFMVKPEEPFQPVKEATQL [T132F] | 0.0732 | – | – | 0.0573 | 0.0502 | 0.0591 | – | 0.066 | – | 0.0486 | – | – | – | 0.033 | 0.0417 | 0.0515 | – | 0.0259 | –
MGESLFKGPRDYNPISSSICHLTNESDGHTTSLYGIGFGPFIITNKHLFRRNNGTLVVQSLHGVFKVKDTTTLQQHLVDGRDMIIIRMPKDFPPFPQKLKFREPQREERICLVTTNFQTKSMSSMVSDTSCTFPSGDGIFWKHWIQTKDGQCGSPKVSTRDGFIVGIHSASNFTNTNNYFTSVPKNFMELLTNQEAQQWVSGWRLNADSVLWGGHKVFMVKPEEPFQPVKEATQL [L156K] | 0.0487 | 0.0484 | 0.0428 | – | 0.0597 | 0.0553 | 0.0547 | – | 0.054 | 0.0443 | – | – | 0.047 | 0.0448 | 0.0553 | 0.0316 | 0.0444 | – | –
